In all, about 52,000 compounds went through this assay and about 1,700 (3.3%) were called active. No stated cut-off is given here; in the data, active means survival mostly below about 52% (no sharp cut-off); inactive means mostly above about 56%. The list shows a part of the results.

The subject of the experiment is Wild type. Put plainly: growth inhibition of S. aureus wild type versus tarO mutant, primary screen, teichoic acid synthesis inhibitors, RN4220, OD600 (AID 463173). The following applies: S. aureus RN4220 wild type/DeltatarO growth, OD600, 18 h, stronger effect = lower value, screened at 18.75 µg/mL (by protocol).
Consider `Cc1ccc(C(=O)c2cn(Cc3ccccc3)c3cc4c(cc3c2=O)OCCO4)cc1`, for which the survival is inactive: 147%.
As to `CCc1cccc(NC(=O)CSc2nccn2C)c1`, the survival is inactive: 77%.
Take `CC(=O)c1ccc(NC(=O)CSc2nnc(NC(=O)NC3CCCCC3)s2)cc1`: the survival is inactive: 45%.
Consider `Cc1cccc(Cn2c(CNC(=O)c3ccccc3)nc3ccccc32)c1`, for which the survival was inactive: 84%.
As for `CC(C)OCCCNC(=O)c1c2c(nc3ccccc13)C(=O)N(C1CCCCC1)C2`, the survival was inactive: 19%.
Regarding `Cc1ccn2c(Nc3ccc(C(C)C)cc3)c(-c3ccsc3)nc2c1`, the survival is inactive: 87%.
Turning to `O=C(CCN1CCOCC1)Nc1ccc(Cl)cc1`, the survival was inactive: 100%.
As to `Cc1cc(C)c(NC(=O)Nc2sc3nc4n(c(=O)c3c2C)CCC(C)CC4)c(C)c1` (stereo unspecified), the survival was inactive: 85%.
For `Cc1cc(C)cc(Nc2ncnc3sc4c(c23)CCCC4)c1`, the survival is active: -3%.
Take `C=CCn1c(SCC(N)=O)nnc1-c1ccccc1O`: the survival is inactive: 111%.
With `CCOC(=O)c1cc(-c2ccccc2)n(CC(=O)Nc2cc(Cl)c(OC)cc2OC)c1C`, the survival was inactive: 128%.
The same measure for `Cc1nn(C(C)C(=O)Nc2cccc(F)c2)c(=O)c2c1sc1ccccc12` (stereo unspecified): inactive: 111%.
For the molecule `Cc1ccc(Nc2c(-c3ccc(N4CCOCC4)cc3)nc3ncccn23)c(C)c1`, the survival was inactive: 86%.
Then `COCCNC(=O)CCSc1nc(-c2ccc(OC)cc2)cc(C(F)(F)F)n1`, with inactive: 84%.
For `CCCCCOc1ccccc1Cn1c(=O)oc2ccc(C)cc21`, the survival is active: 15%.
In the case of `O=C(NC1CCCC1)c1ccc(CSc2nc3cccnc3n2Cc2ccccc2F)cc1`, the survival was inactive: 32%.
The same measure for `CC1CCCN(Cc2c(O)ccc3c(=O)c(-c4ccccc4Cl)c(C(F)(F)F)oc23)C1` (stereo unspecified): inactive: 65%; for `O=C(Cn1c(-c2cccs2)cc2ccccc21)NCCCN1CCN(c2ccc(F)cc2)CC1`: inactive: 136%.
Consider `Cc1ccccc1Nc1ncccc1C(=O)N1CCOCC1`, for which the survival was inactive: 110%.
On to `Cc1cc(C)c(NS(=O)(=O)c2ccc3c(c2)NC(=O)CCS3)c(C)c1`, for which the survival was inactive: 60%.
With `O=C(COc1ccc(Cl)cc1)N(Cc1ccco1)c1ccccn1`, the survival is inactive: 80%.
For the molecule `C#CCN1C(=O)C(O)(CC(=O)c2ccc(OC)c(OC)c2)c2cc(Br)ccc21` (stereo unspecified), the survival is inactive: 111%.
Consider `Cc1ccc(S(=O)(=O)N(CC(O)Cn2c3ccccc3c3ccccc32)c2cccc(C(=O)N(C)C)c2)cc1` (stereo unspecified), for which the survival was inactive: 72%.
Turning to `COc1ccc(C2=NN(S(C)(=O)=O)C(c3cn(-c4ccccc4)nc3-c3cccs3)C2)cc1` (stereo unspecified), the survival is inactive: 159%.
With `Cc1ccc(CN2C(=O)c3ccccc3Sc3ccc(C(=O)NCc4ccco4)cc32)cc1`, the survival was inactive: 55%.
For the molecule `CC1(C)CC(=O)c2cc(C(=O)Nc3ccc(Br)cc3)c(=O)[nH]c2C1`, the survival is inactive: 77%.
In the case of `CCN(C(=O)C1CCC(CNS(=O)(=O)c2cccc3nsnc23)CC1)c1ccccc1` (stereo unspecified), the survival was inactive: 76%.
Consider `COc1ccc(NC(=O)C2=C(C)Nc3ncnn3C2c2ccc(C)o2)cc1` (stereo unspecified), for which the survival was inactive: 70%.
As for `CCN(C(=O)C1CCC(CNS(=O)(=O)c2cccc3nsnc23)CC1)c1cccc(C)c1` (stereo unspecified), the survival is inactive: 86%.
On to `Cc1oc2ncnc(N3CCOCC3)c2c1C(=O)N1CCN(c2cccc(C(F)(F)F)c2)CC1`, for which the survival is active: -6%.
As to `CCCn1c(=N)c(C(=O)NCc2cccnc2)cc2c(=O)n3cccc(C)c3nc21`, the survival was inactive: 77%.
The same measure for `CS(=O)(=O)N1CCC(NC(=O)Cc2ccccc2)CC1`: inactive: 117%; for `COc1cccc(-c2ccnc3c(-c4ccc(F)cc4)c(C)nn23)c1`: inactive: 99%.
The same measure for `Cc1ccc(Oc2nc3c(c(=O)n(Cc4ccccc4)c(=O)n3C)n2C)cc1C`: inactive: 25%.
Turning to `O=C(CCCc1ccccc1)Nc1ncn[nH]1`, the survival is inactive: 98%.
As to `O=C(Cc1ccc(NC(=O)N2CCSc3ncccc32)cc1)NCc1ccccc1`, the survival is inactive: 72%.
As for `Cc1cc(C)cc(NC(=O)Cn2c(=O)n(C(C)C)c(=O)c3oc4ccccc4c32)c1`, the survival is inactive: 85%.
Regarding `Cc1ccc(-c2nc3ccccn3c2Nc2ccc3c(c2)OCCO3)s1`, the survival was inactive: 71%.
For the molecule `CCOc1ccc(C2N3CC4(C(C)C)CN2CC(C(C)C)(C3)C4=O)cc1OC` (stereo unspecified), the survival was inactive: 88%.
Regarding `CCOc1ccccc1NC(=O)N(C)CCc1c(C)nn(CC)c1C`, the survival was inactive: 129%.
On to `COc1ccc(/C=C/C(=O)N2CCC(c3nc4ccccc4o3)CC2)cc1OC`, for which the survival is inactive: 78%.
The same measure for `COc1ccc(OCC(=O)N2CCN(C(=O)c3cc(OC)c(OC)c(OC)c3)CC2)cc1`: inactive: 96%.
With `Cc1ccc(COc2ccc3oc(-c4ccccc4)c(C(=O)O)c3c2)cc1`, the survival was inactive: 54%.
For `Cc1ccc(NC(=O)c2ccc(=O)n(CC(=O)Nc3c(C)cc(C)cc3C)n2)cc1`, the survival was inactive: 102%.
As for `CCOc1ccc(C2C=C(c3cccc(OC)c3)Nc3nnnn32)cc1` (stereo unspecified), the survival was inactive: 59%.
In the case of `COc1ccc(N=Cc2ccc(Br)s2)cc1`, the survival is inactive: 110%.
The same measure for `COc1ccc(C(=O)N2CC(=O)Nc3ccc(C)cc3C2c2ccccc2)cc1OC` (stereo unspecified): inactive: 81%.
For the molecule `COc1ccc(-n2nc(C(=O)Nc3ccc(Br)cc3C)c3c4ccccc4n(C)c3c2=O)cc1`, the survival is inactive: 73%.
With `COc1cccc(C(=O)Nc2ccc(-n3nncc3-c3ccc(Br)cc3)cc2)c1OC`, the survival was inactive: 143%.
The same measure for `Cc1cc(C)n2c(Nc3ccccc3C)c(-c3cccs3)nc2n1`: inactive: 92%; for `CC(C)(C)c1ccc(C(=O)NNc2ncnc3c2cnn3-c2ccccc2)cc1`: inactive: 82%.
Take `CCN(C(=O)Cn1c(SCC(=O)Nc2ccc(OC)cc2)nc2ccccc21)c1cccc(C)c1`: the survival was inactive: 134%.
As to `O=C(COc1ccccc1)NCC(c1cccs1)S(=O)(=O)c1ccc(Cl)cc1` (stereo unspecified), the survival was inactive: 71%.
Then `Cc1c(C2=CCN(S(=O)(=O)c3ccc(Br)cc3)CC2)c2ccccc2n1CC(=O)N1CCCC1`, with inactive: 82%.
The same measure for `Cc1ccc(CNC(=O)CSc2c3c(nc4ccc(Cl)cc24)CCCC3)cc1`: inactive: 80%.
As for `Cc1cnc(NC(=O)C(C)N2CCN(C)CC2)s1` (stereo unspecified), the survival was inactive: 101%.
Consider `Cc1cccc(Nc2nc(C)nc(N)c2S(=O)(=O)c2ccccc2)c1`, for which the survival was inactive: 82%.
Turning to `Cc1ccc2nc(-c3ccc(C)c(NC(=O)Cc4ccccc4)c3)oc2c1`, the survival was inactive: 77%.
As to `Cc1ccccc1CN1CCc2nc(N3CCN(c4ccccn4)CC3)ncc2C1`, the survival is inactive: 71%.
`CCOc1ccc(NC(=O)CN(Cc2ccccc2)S(=O)(=O)c2ccc(Cl)cc2)cc1`: the survival is inactive: 92%.
Then `COc1ccc2nc3oc(C(=O)Nc4cccc(C(F)(F)F)c4)cc3cc2c1`, with inactive: 66%.
Then `Cc1cc(C)cc(NS(=O)(=O)c2ccc3c(c2)OCC(C(=O)N2CCCC2)O3)c1` (stereo unspecified), with inactive: 78%; and `CCNC(=O)c1c(NC(=O)COc2ccc(F)cc2)sc2c1CCCC2`, with inactive: 81%.
As to `O=C(Nc1ccc(Br)cc1)N1CCC(CN2CCCC2)CC1`, the survival is inactive: 119%.
The same measure for `CCCC12CN3CC(C)(CN(C1)C3c1ccccc1Cl)C2=O` (stereo unspecified): inactive: 126%.
`CCc1c(C)sc2c1CCN(C(=O)Nc1ccccc1C(=O)OC)C2c1ccc(F)cc1` (stereo unspecified): the survival is inactive: 79%.
Then `Cc1ccccc1NC(=O)CS(=O)(=O)c1cccc2nsnc12`, with inactive: 74%; and `Cc1c(Cl)cccc1NC(=O)c1ccc(NC(=O)N2CCSc3ncccc32)cc1`, with inactive: 81%; and `COc1ccc(NC(=O)CSc2c3c(nc4ccc(Cl)cc24)CCCC3)cc1Cl`, with inactive: 75%.
Consider `COc1ccc(N2CCN(CCCNC(=O)c3ccc4nc(CCc5ccccc5)oc4c3)CC2)cc1`, for which the survival was inactive: 113%.
For the molecule `O=C(NC1CCCC1)C(c1ccccc1)N(Cc1cccs1)C(=O)Cn1nnc2ccccc21` (stereo unspecified), the survival is inactive: 118%.
With `CCOc1ccc(C2C(C(=O)Nc3ccc(OC)cc3)=C(C)Nc3nc(SCc4ccc(Cl)cc4)nn32)cc1` (stereo unspecified), the survival was inactive: 121%.
In the case of `O=C(c1ccc2c(c1)N(Cc1ccc(F)cc1)CCS2)N1CCN(c2ccccc2)CC1`, the survival was inactive: 84%.
For the molecule `CCCc1ccc(OCC(=O)Nc2scc(-c3cccs3)c2C(=O)OC)cc1`, the survival was inactive: 83%.
As for `COc1ccc2c(c1)CC(C(=O)NCCN1CCN(c3cccc(Cl)c3)CC1)CO2` (stereo unspecified), the survival was inactive: 75%.
Regarding `Cc1ccc(CNC(=O)c2sc3nc4n(c(=O)c3c2C)CCCC4)cc1`, the survival is inactive: 82%.
In the case of `Cc1nc(Oc2ccccc2C)c2oc3ccccc3c2n1`, the survival was inactive: 78%.
Consider `CN(C(=O)Cn1nc(C(F)(F)F)c2c1CCC2)C1CCCCC1`, for which the survival was inactive: 106%.
As for `Cc1ccc(C)c(NC(=O)CCc2nc(-c3ccc(C(C)(C)C)cc3)no2)c1`, the survival was inactive: 109%.
With `CC(C)=NNS(=O)(=O)c1ccc(N2CCCC2=O)cc1`, the survival was inactive: 102%.
Regarding `COc1cc(CNC(=O)CSCc2nc3cccnc3n2C2CCCCC2)cc(OC)c1OC`, the survival was inactive: 135%.
Take `COc1cccc(NC(=O)CN(C)S(=O)(=O)c2cccs2)c1`: the survival is inactive: 89%.
In the case of `CCOc1cc(C#N)c(NC(=O)c2cccc(S(=O)(=O)N3CCOCC3)c2)cc1OCC`, the survival was inactive: 131%.
On to `O=C(CCNS(=O)(=O)c1ccc2c(c1)CCCC(=O)N2)NCc1ccccc1Cl`, for which the survival was inactive: 72%.
The same measure for `CCC(=O)N1CCc2cc(CNC(=O)Nc3ccccc3Cl)ccc21`: inactive: 68%; for `CC1CCN(C(=O)CSc2nc(-c3ccc(C(C)C)cc3)no2)CC1`: inactive: 71%; for `CC(C(=O)NCc1ccccc1)N1Cc2ccccc2C1=O` (stereo unspecified): inactive: 76%.
Then `CCC1CCCCN1CCCNC(=O)c1ccc2c(c1)N(Cc1ccccc1F)C(=O)c1ccccc1S2(=O)=O` (stereo unspecified), with inactive: 125%; and `CCCS(=O)(=O)N1CC(=O)N(c2ccccc2F)C(C)(C(=O)NC2CCCCCC2)C1` (stereo unspecified), with inactive: 72%.
Consider `Cc1ccc(C(=O)Nc2ccc3c(c2)N(C)C(=O)c2ccccc2S3)cc1`, for which the survival is inactive: 99%.
Then `COc1ccc(CCNC(=O)c2cc(C)nc3c2c(C)nn3-c2ccccc2)cc1OC`, with inactive: 76%.
